The campaign covered roughly 45,000 compounds. About 65 (0.1%) were called active. The call rests on the fitted dose curve; in most records, active means well fitted activation curve with a large enough effect; inconclusive means small, poorly fitted or top-dose-only effect; inactive means no such curve, though single readings can be large or run the other way. The list shows a part of the results.
What follows are compounds tested against Galactocerebrosidase (Homo sapiens) (UniProt P54803) (assay: A Novel Cell-Based Assay to Identify Small Molecules for B -Galactocerebrosidase). Settings: 145M-Twi-hGALC-G270D cells (Twitcher mouse brain line with human GALC G270D), HMU-beta-Gal fluorescence, 48 h; series mostly up to 57.5 µM; activation: at the top concentration.
Chain of UniProt P54803 (P54803 whole entry, looked up): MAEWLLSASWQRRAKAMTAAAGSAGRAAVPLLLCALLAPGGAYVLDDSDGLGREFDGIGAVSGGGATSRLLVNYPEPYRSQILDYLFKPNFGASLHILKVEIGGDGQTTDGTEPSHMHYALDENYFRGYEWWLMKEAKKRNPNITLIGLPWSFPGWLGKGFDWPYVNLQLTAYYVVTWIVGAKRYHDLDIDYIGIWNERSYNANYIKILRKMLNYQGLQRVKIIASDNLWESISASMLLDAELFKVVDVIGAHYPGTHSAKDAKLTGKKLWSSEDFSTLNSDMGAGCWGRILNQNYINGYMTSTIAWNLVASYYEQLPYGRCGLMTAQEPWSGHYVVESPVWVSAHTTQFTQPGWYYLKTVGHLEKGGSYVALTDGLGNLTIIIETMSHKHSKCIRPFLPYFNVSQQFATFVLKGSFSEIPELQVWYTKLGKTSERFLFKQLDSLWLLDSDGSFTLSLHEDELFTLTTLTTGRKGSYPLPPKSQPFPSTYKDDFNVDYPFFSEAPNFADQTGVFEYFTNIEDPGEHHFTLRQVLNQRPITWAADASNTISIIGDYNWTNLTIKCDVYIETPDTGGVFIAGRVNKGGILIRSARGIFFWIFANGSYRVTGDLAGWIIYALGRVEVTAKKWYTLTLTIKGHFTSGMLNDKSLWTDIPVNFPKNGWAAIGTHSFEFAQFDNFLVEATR
In short: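 Fluorescence readout: HMU-β-gal cleavage by mutant GALC (0.1 mM final, citrate/phosphate pH 5.2 with 1 mg/mL taurocholate), stopped with carbonate/bicarbonate plus Triton X-100. Cells: murine Twitcher 145M-Twi expressing human G270D GALC; qHTS for activators.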
For CCC(=O)N1CCc2cc(S(=O)(=O)NCCC(=O)Nc3ccc(CC)cc3)ccc21, the “activation” value was inactive: -19.6%. With CC1CCN(c2nc(-c3ccc(C(C)(C)C)cc3)nc3ccccc23)CC1 the “activation” value was inactive: -10.6%. O=C(CSc1nc2ccsc2c(=O)n1-c1ccc(Cl)cc1)NCc1ccc(Cl)cc1 was tested, and the “activation” value was inactive: -8.95%. In the case of CCOc1ccc2nc(N3CCCC(C(=O)Nc4ccc(OC)cc4)C3)sc2c1 (stereo not drawn), the “activation” value is reported as inactive: -14.2%. O=C(CC1N=C2c3ccccc3N=C(SCC(=O)Nc3ccc(F)cc3)N2C1=O)NCc1ccco1 (stereo not drawn) was tested, and the “activation” value was inactive: -22%. In the case of COc1ccc(CCNC(=O)c2c(O)nc3ccccn3c2=O)cc1OC, the “activation” value is reported as inactive: -6.25%. COc1ccccc1NC(=O)CSc1oc(-c2ccco2)nc1S(=O)(=O)c1ccc(C)cc1 was tested, and the “activation” value was inactive: -5.28%. With CCOc1ccc(NC(=O)c2oc3ccccc3c2NC(=O)C(C)(C)C)cc1 the “activation” value was inactive: 1.67%. With CCc1nn2c(=O)cc(COC(=O)c3ccc(NC(=O)COc4ccccc4C)cc3)nc2s1 the “activation” value was inactive: -16.6%. In the case of COc1ccc(NC(=O)c2csnn2)cc1Cl, the “activation” value is reported as inactive: -24.2%. In the case of COc1cc(Nc2ncc3c(n2)CCN(Cc2ccc(OC(C)C)c(OC)c2)C3)cc(OC)c1, the “activation” value is reported as inactive: -35%. Cc1ccc(C(=O)Nc2nnc(S(=O)(=O)N(C)Cc3ccc(Cl)cc3)s2)cc1 was tested, and the “activation” value was inactive: -10.5%. For COc1ccc(NC(=O)C2CCN(C3=NS(=O)(=O)C(c4ccc(C)c(C)c4)=C3C)CC2)c(OC)c1, the “activation” value was inactive: -17.4%. For Cc1ccccc1OC(=O)c1cc(-c2ccc3c(c2)OCCO3)on1, the “activation” value was inactive: -15.5%. For O=C(c1noc2c1CCCCC2)N1CCN(c2cccc(Cl)c2)CC1, the “activation” value was inactive: -9.5%. In the case of CCN1CCN(c2nnc(-n3cccc3C(=O)NCc3ccccc3OC)s2)CC1, the “activation” value is reported as inactive: -21.4%. In the case of O=C(Cn1ncc2c3ccccc3n(Cc3ccccc3F)c2c1=O)N1CCCCCC1, the “activation” value is reported as inactive: -10.4%. With Cc1ccc(NC(=O)N2CC3CCCN3c3ccccc32)cc1Cl (stereo not drawn) the “activation” value was inactive: -15.9%. With CCc1ccccc1NC(=O)Cn1nnc2sc3c(c2c1=O)CCC(C(C)(C)C)C3 (stereo not drawn) the “activation” value was inactive: -0.75%. In the case of O=C(c1cc2ccc3cccnc3c2[nH]1)N1CCCCC1, the “activation” value is reported as inactive: -10.5%. In the case of COc1ccc(C)cc1NS(=O)(=O)c1cnc(N)nc1, the “activation” value is reported as inactive: -11.6%. With COc1cccc(CNC(=O)C2CCN(S(=O)(=O)c3c(C)noc3/C=C/c3cccs3)CC2)c1 the “activation” value was inactive: -0.261%. For O=C(NCCc1csc(-c2cccc(F)c2)n1)C(=O)Nc1cc(F)ccc1F, the “activation” value was inactive: -25.6%. Cc1ccc(C)c(NC(=O)Cc2coc3cc(C)cc(C)c23)c1 was tested, and the “activation” value was inactive: -14.1%. For CC(=O)Nc1cccc(NC(=O)CSc2nccn2Cc2ccc3c(c2)OCO3)c1, the “activation” value was inactive: -24.1%. For Cc1cccc(NC(=O)CSc2ccc(-c3sc(-c4ccccc4)nc3C)nn2)c1C, the “activation” value was inactive: -15.1%. For CC(=O)c1ccc(N2CCN(C(=O)c3cc(S(=O)(=O)N4CCCCCC4)cn3C)CC2)cc1, the “activation” value was inactive: -1.68%. For CCOC(=O)c1sc2ncn(CC(=O)Nc3cc(Cl)ccc3C)c(=O)c2c1C, the “activation” value was inactive: -13.2%. For CCOC(=O)c1cc2c(=O)n3ccccc3nc2n(CC2CCCO2)c1=NC(=O)c1ccccc1Br (stereo not drawn), the “activation” value was inactive: -16.4%. In the case of O=C(OCc1cc(=O)n2nc(-c3cccs3)sc2n1)c1cccc(F)c1, the “activation” value is reported as inactive: -0.361%. For CC(C)CCN(C(=O)Nc1ccc(Cl)c(Cl)c1)C1CCN(C(C)C)CC1, the “activation” value was inactive: -11.6%. For COCCCNC(=O)c1ccc(Cn2c(SCc3ccc(F)cc3)nc3cccnc32)cc1, the “activation” value was inactive: -46.5%. In the case of Cc1cc(C(=O)Nc2c(C)cccc2C)n(-c2ccccc2)n1, the “activation” value is reported as inactive: -9.27%. In the case of COCCn1c(=O)[nH]c2cc(C(=O)Nc3ccc(OC)cc3)ccc2c1=O, the “activation” value is reported as inactive: -15.6%. In the case of CCOc1ccc(CNC(=O)c2ccc3c(c2)nc2n3CCCCC2)cc1, the “activation” value is reported as inactive: -30.9%. In the case of COc1ccc(C(=O)Nc2ccc3oc(-c4cccnc4)nc3c2)cc1OC, the “activation” value is reported as inactive: -20.4%. In the case of CCCCNc1c(C(=O)OCC)c(C)nc2c1cnn2CC, the “activation” value is reported as inactive: -18.4%. With COc1ccc(CCNC(=O)c2cc(=O)c3ccc(C)cc3o2)cc1OC the “activation” value was inactive: -29.9%. With CCCCCn1c(=O)[nH]c2cc(C(=O)NC(C)CC)ccc2c1=O (stereo not drawn) the “activation” value was inactive: -9.83%. For CC(C)(C)c1ccc(OCCOCCn2c(-c3ccc(Cl)cc3)nc3ccccc3c2=O)cc1, the “activation” value was inactive: -3.05%. For O=C(COC(=O)c1cccc(NC(=O)c2ccc(Br)cc2)c1)c1ccc(Cl)cc1, the “activation” value was inactive: -9.62%. With Cc1cccc(Cn2c(COc3ccccc3)nc3ccccc32)c1 the “activation” value was inactive: -4.83%. CCn1c2ccccc2c2cc(NC(=O)COc3cc(C)ccc3C)ccc21 was tested, and the “activation” value was inactive: -20%. With CCc1cnc2c(c1SCC(=O)Nc1ccc(C(=O)OC)cc1)c(=O)n(C)c(=O)n2C the “activation” value was inactive: -9.75%. With Cc1ccc2c(c1)cc(C(=O)NCc1ccccc1C)n2C the “activation” value was inactive: -7.37%. With CC(C)Oc1ccc(CNC(=O)C2CCN(Cc3cc4ccccc4n3Cc3ccccc3)CC2)cc1 the “activation” value was inactive: -0.354%. With CC1CCc2onc(C(=O)N3CCN(c4cccc(Cl)c4)CC3)c2C1 (stereo not drawn) the “activation” value was inactive: -8.35%. With Cc1cc(C)c(S(=O)(=O)NCC(c2ccco2)S(=O)(=O)c2cccs2)c(C)c1 (stereo not drawn) the “activation” value was inactive: -17.9%. With Cc1cc(Br)cc2c1N(Cc1ccccc1OC(C)C)C(=O)C2=O the “activation” value was inactive: -38.9%. With O=C(/C=C/c1ccccc1)Nc1nc2n(n1)C(c1ccc(F)cc1)C=C(c1ccccc1)N2 (stereo not drawn) the “activation” value was inactive: -10.6%. For CC(C)Oc1ccc(CNC(=O)c2ccc(NC(=O)N3CC(C)Sc4ccccc43)cc2)cc1 (stereo not drawn), the “activation” value was inactive: -4.38%. CC(=O)CC/C=C(\C)CC/C=C(\C)CC/C=C(\C)CCC=C(C)C was tested, and the “activation” value was inactive: -5.44%. For CCOCCc1nn2c(=O)cc(COC(=O)c3ccc(NC(=O)C(C)(C)C)cc3)nc2s1, the “activation” value was inactive: -5.14%. In the case of COc1ccc(NC(=O)c2nc(-c3ccc(C)cc3)n3c2CCCCC3)c(OC)c1, the “activation” value is reported as inactive: -6.13%. CCc1cccc(C)c1NC(=O)c1cnn(-c2ccc(OC)cc2)c1C1CCN(C(=O)OC(C)(C)C)CC1 was tested, and the “activation” value was inactive: -13.2%. CCOC(=O)c1ccccc1NC(=O)c1cnc(N2CCOCC2)c2ccccc12 was tested, and the “activation” value was inactive: -7.45%. In the case of Cc1ccc(SCC(=O)Nc2ccc3oc(-c4ccccc4F)nc3c2)cc1, the “activation” value is reported as inactive: 0.005%. With Cc1cc2oc(C(=O)N(Cc3ccco3)Cc3ccccc3Cl)c(C)c2cc1C the “activation” value was inactive: 25.8%. For CN(Cc1ccco1)S(=O)(=O)c1nnc(NC(=O)c2ccccc2Cl)s1, the “activation” value was inactive: -4.82%. With CCC(=O)N1CCc2cc(S(=O)(=O)NC(C(=O)NCCc3cccc(C)c3)C(C)C)ccc21 (stereo not drawn) the “activation” value was inactive: -1.07%. With O=C(NCc1cccs1)c1ccc(CSc2nc3ccncc3n2Cc2ccccc2F)cc1 the “activation” value was inactive: -17.5%. With Cc1nn(C)c(C)c1CCNC(=O)Nc1ccccc1C(F)(F)F the “activation” value was inactive: -16.7%. For COc1ccc(N2CC(NC(=O)/C=C\c3ccccc3)CC2=O)cc1OC (stereo not drawn), the “activation” value was inactive: -6.65%.

Reference: PubChem BioAssay AID1159614 (National Center for Advancing Translational Sciences (NCATS), 2016)
Further: 0% is about no effect; nearly all actives have a fitted effect of over 65% in size.
